Source: the supplement of paper PMC10126150
Sequences with one replicate were seen in a single cluster, so their values are uncertain.
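Note: ATP exposure 15 min at 22 °C before imaging.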

Each sequence was assayed on ATP (assay: switch fluorescence ratio, 500 uM ATP over buffer (Cy3 cluster intensity, sum of 5 cycles each) (fold (ratio)); higher = stronger signal-on switching upon ATP binding; sequences stand for … in TCGTCGGCAGCGTCAGATGTGTATAAGAGACAGTTTTTTTTTTTTTTTTTTTTTTTTT…TC). Conditions: aptamer strand: ATP DNA aptamer (quencher-CACCTGGGGGAGTATTGCGGAGGAAGG + anchor), 100 nM annealed; ATP concentration: 500 uM; one replicate.
Method in brief: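 Clusters carrying Cy3-labelled switching strands on a modified Illumina MiSeq flow-cell were annealed to 100 nM quencher-labelled ATP aptamer and imaged in selection buffer. They were imaged again after 15 min with 500 uM ATP at 22 °C, over five buffer/ATP cycles with NaOH stripping and re-annealing in between. For each cluster, the fluorescence ratio is the summed Cy3 intensity of the target cycles divided by that of the buffer cycles, averaged per switch-domain sequence. Clusters outside 100-1000 RFU were left out.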
With AATCTGTCGC the switch fluorescence ratio was 1.03. AATCTGTTTG showed a switch fluorescence ratio of 0.955. Work on AATCTTCCTG yielded a switch fluorescence ratio of 1.43. AATGAAAAAA was tested, and the switch fluorescence ratio was 1. With AATGAATTTA the switch fluorescence ratio was 1.01. Sequence AATGACTATC has a switch fluorescence ratio of 0.998. AATGAGGATC was tested, and the switch fluorescence ratio was 0.991. AATGAGGGCT gave a switch fluorescence ratio of 0.989. AATGAGTCCT gave a switch fluorescence ratio of 1.02. For AATGATGAAT, the switch fluorescence ratio was 1.01. For AATGATGTTT, the switch fluorescence ratio was 0.984. Sequence AATGCAGGCA has a switch fluorescence ratio of 1.02. AATGCAGGTT gave a switch fluorescence ratio of 0.99. Work on AATGCCATCG yielded a switch fluorescence ratio of 1.01. AATGCCCAGT gave a switch fluorescence ratio of 1.01. In the case of AATGCCGTTC, the switch fluorescence ratio is reported as 0.996. AATGCGGTGC showed a switch fluorescence ratio of 1.02. Sequence AATGCGTTAG has a switch fluorescence ratio of 0.958. AATGCTATGA showed a switch fluorescence ratio of 0.974. With AATGCTCATC the switch fluorescence ratio was 0.988. In the case of AATGCTCCGT, the switch fluorescence ratio is reported as 1.13. In the case of AATGCTTCGT, the switch fluorescence ratio is reported as 1.03. AATGGATTAG showed a switch fluorescence ratio of 0.986. AATGGCCTAC gave a switch fluorescence ratio of 1.02. For AATGGTCCGC, the switch fluorescence ratio was 1.17. With AATGGTGAAA the switch fluorescence ratio was 1.01. AATGGTTGGA showed a switch fluorescence ratio of 1.03. AATGTAGG was tested, and the switch fluorescence ratio was 0.974. Work on AATGTCAGGG yielded a switch fluorescence ratio of 1. With AATGTCTGAT the switch fluorescence ratio was 0.973. Sequence AATGTGCCG has a switch fluorescence ratio of 0.976. Sequence AATGTGTAGG has a switch fluorescence ratio of 0.999. AATGTTGTAG showed a switch fluorescence ratio of 1.02. With AATTAATCCC the switch fluorescence ratio was 1.02. AATTAATTAT showed a switch fluorescence ratio of 0.981. AATTAATTTG gave a switch fluorescence ratio of 0.999. Work on AATTACGACG yielded a switch fluorescence ratio of 1.1. AATTACTTAC showed a switch fluorescence ratio of 1.38. Sequence AATTAGCCGT has a switch fluorescence ratio of 0.917. AATTAGGCAA was tested, and the switch fluorescence ratio was 1.09. AATTAGGTTC was tested, and the switch fluorescence ratio was 0.991. AATTATTATG gave a switch fluorescence ratio of 0.963. In the case of AATTCACGT, the switch fluorescence ratio is reported as 1. Sequence AATTCACGTA has a switch fluorescence ratio of 1.23. AATTCAGACG showed a switch fluorescence ratio of 1.13. In the case of AATTCCCTGC, the switch fluorescence ratio is reported as 1.11. In the case of AATTCCGCTA, the switch fluorescence ratio is reported as 2.98. With AATTCCTAAG the switch fluorescence ratio was 1. Sequence AATTCCTGCC has a switch fluorescence ratio of 1.49. In the case of AATTCGACTT, the switch fluorescence ratio is reported as 1.04. With AATTCGAGGC the switch fluorescence ratio was 0.95. For AATTCGATCG, the switch fluorescence ratio was 0.977. In the case of AATTCGCCCA, the switch fluorescence ratio is reported as 1.03. Sequence AATTCTCAT has a switch fluorescence ratio of 0.984. Work on AATTCTTTTA yielded a switch fluorescence ratio of 0.979. For AATTGAAGCT, the switch fluorescence ratio was 0.991. AATTGATGCA gave a switch fluorescence ratio of 1.09. AATTGCAACC gave a switch fluorescence ratio of 1.06. In the case of AATTGCCAGG, the switch fluorescence ratio is reported as 1.14. AATTGGAACG gave a switch fluorescence ratio of 1.02. Sequence AATTGGGGCA has a switch fluorescence ratio of 0.954. Sequence AATTGGTGGC has a switch fluorescence ratio of 0.995. AATTGTCAAG gave a switch fluorescence ratio of 1.01. AATTGTCGAG gave a switch fluorescence ratio of 1. Sequence AATTGTGGAC has a switch fluorescence ratio of 0.986. Work on AATTTAAACT yielded a switch fluorescence ratio of 1.05. Sequence AATTTACGAG has a switch fluorescence ratio of 1.02. Work on AATTTAGACA yielded a switch fluorescence ratio of 1.02. AATTTATTG was tested, and the switch fluorescence ratio was 0.982. AATTTATTGA was tested, and the switch fluorescence ratio was 1.05. AATTTCCATG was tested, and the switch fluorescence ratio was 0.982. AATTTGAAGC was tested, and the switch fluorescence ratio was 0.988. Work on AATTTGAAGT yielded a switch fluorescence ratio of 1.01. AATTTGGTGT gave a switch fluorescence ratio of 0.996. AATTTGTCGA showed a switch fluorescence ratio of 0.987. In the case of AATTTGTTGA, the switch fluorescence ratio is reported as 1.03. In the case of AATTTTCCTA, the switch fluorescence ratio is reported as 1.01. AATTTTGGTC was tested, and the switch fluorescence ratio was 1.07. ACAAAAGTC showed a switch fluorescence ratio of 1.05. ACAAAATAAG showed a switch fluorescence ratio of 1.03. With ACAAAGACGG the switch fluorescence ratio was 1.11. For ACAAAGCT, the switch fluorescence ratio was 1.2. ACAAATGAGG showed a switch fluorescence ratio of 0.962. With ACAAATTTT the switch fluorescence ratio was 1.01. ACAACGTGAG showed a switch fluorescence ratio of 1.02. For ACAACTATC, the switch fluorescence ratio was 1.12. ACAAGCCATG showed a switch fluorescence ratio of 0.993. With ACAAGCTGCA the switch fluorescence ratio was 1.01. Sequence ACAAGGAGGG has a switch fluorescence ratio of 0.978. With ACAAGGGAAA the switch fluorescence ratio was 1.03. ACAAGTAGAA showed a switch fluorescence ratio of 0.992. ACAATACAAA gave a switch fluorescence ratio of 1.07. ACAATACACC was tested, and the switch fluorescence ratio was 1.65. With ACAATAGTGT the switch fluorescence ratio was 1.02. ACAATCAAGA was tested, and the switch fluorescence ratio was 0.988. ACAATGTATT was tested, and the switch fluorescence ratio was 1.02. With ACAATTACTG the switch fluorescence ratio was 1.01. ACAATTCGAA was tested, and the switch fluorescence ratio was 1.02. Work on ACACAGAGGC yielded a switch fluorescence ratio of 1.02. ACACATGGCC gave a switch fluorescence ratio of 1.05. ACACCAAAAG showed a switch fluorescence ratio of 0.953. For ACACCCGGTC, the switch fluorescence ratio was 1.15. Sequence ACACCCTGGC has a switch fluorescence ratio of 1.26. Work on ACACCGACTT yielded a switch fluorescence ratio of 1.2. ACACCTGGGT gave a switch fluorescence ratio of 1.04. ACACCTTATA showed a switch fluorescence ratio of 1.08. ACACCTTTGG was tested, and the switch fluorescence ratio was 0.999. ACACGAATGA gave a switch fluorescence ratio of 1.04. ACACGAGGAT was tested, and the switch fluorescence ratio was 1.08. ACACGATATC gave a switch fluorescence ratio of 1.24. Sequence ACACGCACAT has a switch fluorescence ratio of 1.61. For ACACGCCCGT, the switch fluorescence ratio was 1.12. Sequence ACACGCCTTT has a switch fluorescence ratio of 1.01. ACACGTGCCA was tested, and the switch fluorescence ratio was 0.993. ACACTAGTTC was tested, and the switch fluorescence ratio was 1.08. ACACTAGTTT was tested, and the switch fluorescence ratio was 1.01. Work on ACACTTCCAC yielded a switch fluorescence ratio of 1.38. Sequence ACAGAACGGG has a switch fluorescence ratio of 0.984. With ACAGAACTAA the switch fluorescence ratio was 1.07. In the case of ACAGAAGGAA, the switch fluorescence ratio is reported as 1.06. In the case of ACAGAATACT, the switch fluorescence ratio is reported as 1.15. In the case of ACAGAATGAG, the switch fluorescence ratio is reported as 0.996. ACAGACTGGG was tested, and the switch fluorescence ratio was 1.07. With ACAGAGCAGA the switch fluorescence ratio was 1.18. Sequence ACAGAGCTTC has a switch fluorescence ratio of 1.05. Work on ACAGATAAAA yielded a switch fluorescence ratio of 0.992. Sequence ACAGATCCAA has a switch fluorescence ratio of 0.996. Sequence ACAGCAAGGG has a switch fluorescence ratio of 1.07. Sequence ACAGCCCCCC has a switch fluorescence ratio of 1.05. ACAGCTACGA gave a switch fluorescence ratio of 1.27. ACAGGAAGGA gave a switch fluorescence ratio of 1.01. ACAGGCAGTG was tested, and the switch fluorescence ratio was 1.04. In the case of ACAGGCTTGA, the switch fluorescence ratio is reported as 0.981. ACAGGGTAAA gave a switch fluorescence ratio of 1. Work on ACAGGGTAGG yielded a switch fluorescence ratio of 0.989. Work on ACAGGGTGCC yielded a switch fluorescence ratio of 1.02. ACAGGGTGCT was tested, and the switch fluorescence ratio was 1.09. ACAGGGTTAT showed a switch fluorescence ratio of 1.03. ACAGGGTTTG showed a switch fluorescence ratio of 1.03. ACAGGTACTC gave a switch fluorescence ratio of 1.07. ACAGGTATGA showed a switch fluorescence ratio of 1.03. Work on ACAGGTGAAG yielded a switch fluorescence ratio of 1.18. ACAGGTGCTG showed a switch fluorescence ratio of 1.11. Sequence ACAGGTTAGC has a switch fluorescence ratio of 1.01. ACAGTACGCT was tested, and the switch fluorescence ratio was 1.43. ACAGTAGTGT gave a switch fluorescence ratio of 1.02. ACAGTATTTC showed a switch fluorescence ratio of 1.12. With ACAGTCTCAT the switch fluorescence ratio was 1.03. ACAGTGTCAG was tested, and the switch fluorescence ratio was 0.951. For ACAGTTGCCT, the switch fluorescence ratio was 0.997. For ACATAAAAGA, the switch fluorescence ratio was 0.995. ACATACGGAG showed a switch fluorescence ratio of 1.17. ACATAGACGC showed a switch fluorescence ratio of 1.14. With ACATATGATG the switch fluorescence ratio was 0.951. ACATATTGAC gave a switch fluorescence ratio of 1.04. In the case of ACATATTGCG, the switch fluorescence ratio is reported as 1.03. ACATATTGGG showed a switch fluorescence ratio of 1.02. ACATCAAGTA showed a switch fluorescence ratio of 1.04. Work on ACATCATCTT yielded a switch fluorescence ratio of 0.985. ACATCCCGAT gave a switch fluorescence ratio of 1.04. ACATCCTTGG gave a switch fluorescence ratio of 1.03. For ACATCGACAG, the switch fluorescence ratio was 1.1. In the case of ACATCGGTGG, the switch fluorescence ratio is reported as 0.967. For ACATCGTCAA, the switch fluorescence ratio was 1.14. Sequence ACATCGTCGT has a switch fluorescence ratio of 0.939. ACATCGTCTC gave a switch fluorescence ratio of 0.982. Work on ACATGAAAAC yielded a switch fluorescence ratio of 1.02. ACATGCGCTA was tested, and the switch fluorescence ratio was 1.2. For ACATGGAACG, the switch fluorescence ratio was 1.01. Sequence ACATGGGTAA has a switch fluorescence ratio of 1.01. ACATGTCATA was tested, and the switch fluorescence ratio was 1.04. ACATGTGGGA gave a switch fluorescence ratio of 0.992. Sequence ACATGTTAAA has a switch fluorescence ratio of 1.04. ACATGTTAAG gave a switch fluorescence ratio of 1.02. ACATTACG showed a switch fluorescence ratio of 1.48. ACATTCGAGC was tested, and the switch fluorescence ratio was 0.987. With ACATTGACAT the switch fluorescence ratio was 1.18. ACATTGCCGT gave a switch fluorescence ratio of 1.01. ACATTTTAGC was tested, and the switch fluorescence ratio was 0.98. With ACCAAAATCT the switch fluorescence ratio was 1.15. ACCAAGAGTG gave a switch fluorescence ratio of 0.994. ACCAAGCTAA was tested, and the switch fluorescence ratio was 1.05. Sequence ACCACAGGCC has a switch fluorescence ratio of 1.03. ACCACTTATT showed a switch fluorescence ratio of 1.05. ACCAGCATTT was tested, and the switch fluorescence ratio was 1. Work on ACCAGCCCGG yielded a switch fluorescence ratio of 0.974. Work on ACCAGGAACC yielded a switch fluorescence ratio of 1.17. Work on ACCAGGGCGA yielded a switch fluorescence ratio of 1.08. Work on ACCAGTACAT yielded a switch fluorescence ratio of 1.1. ACCATAATCC gave a switch fluorescence ratio of 1.08. ACCATAGGCC was tested, and the switch fluorescence ratio was 1.05. For ACCATATTGC, the switch fluorescence ratio was 1.1. ACCATCAAGC gave a switch fluorescence ratio of 1.07. For ACCATGGCGT, the switch fluorescence ratio was 0.997. ACCCACGCCG was tested, and the switch fluorescence ratio was 1.19. Work on ACCCACTAAC yielded a switch fluorescence ratio of 1.43. ACCCACTTTA was tested, and the switch fluorescence ratio was 1.37. ACCCATGTCG showed a switch fluorescence ratio of 1.1. Sequence ACCCCCCCAA has a switch fluorescence ratio of 1.74. For ACCCCGCTTG, the switch fluorescence ratio was 1.14.
